{
  "source": "paper PMC4336329",
  "about": "(PLoS ONE, 2015)",
  "note": "In all, about 310,000 compounds went through this assay and about 14,000 (4.5%) showed an effect of 50% or more. The effect is printed as a negative number. The list shows a part of the results.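 Note: peak tail current of the secondary pulse compared with the same well before compound.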",
  "data": [
    {"target": "human ether-à-go-go-related gene (hERG) potassium channel (human, UniProt Q12809)", "sequence (Q12809 whole entry, looked up)": "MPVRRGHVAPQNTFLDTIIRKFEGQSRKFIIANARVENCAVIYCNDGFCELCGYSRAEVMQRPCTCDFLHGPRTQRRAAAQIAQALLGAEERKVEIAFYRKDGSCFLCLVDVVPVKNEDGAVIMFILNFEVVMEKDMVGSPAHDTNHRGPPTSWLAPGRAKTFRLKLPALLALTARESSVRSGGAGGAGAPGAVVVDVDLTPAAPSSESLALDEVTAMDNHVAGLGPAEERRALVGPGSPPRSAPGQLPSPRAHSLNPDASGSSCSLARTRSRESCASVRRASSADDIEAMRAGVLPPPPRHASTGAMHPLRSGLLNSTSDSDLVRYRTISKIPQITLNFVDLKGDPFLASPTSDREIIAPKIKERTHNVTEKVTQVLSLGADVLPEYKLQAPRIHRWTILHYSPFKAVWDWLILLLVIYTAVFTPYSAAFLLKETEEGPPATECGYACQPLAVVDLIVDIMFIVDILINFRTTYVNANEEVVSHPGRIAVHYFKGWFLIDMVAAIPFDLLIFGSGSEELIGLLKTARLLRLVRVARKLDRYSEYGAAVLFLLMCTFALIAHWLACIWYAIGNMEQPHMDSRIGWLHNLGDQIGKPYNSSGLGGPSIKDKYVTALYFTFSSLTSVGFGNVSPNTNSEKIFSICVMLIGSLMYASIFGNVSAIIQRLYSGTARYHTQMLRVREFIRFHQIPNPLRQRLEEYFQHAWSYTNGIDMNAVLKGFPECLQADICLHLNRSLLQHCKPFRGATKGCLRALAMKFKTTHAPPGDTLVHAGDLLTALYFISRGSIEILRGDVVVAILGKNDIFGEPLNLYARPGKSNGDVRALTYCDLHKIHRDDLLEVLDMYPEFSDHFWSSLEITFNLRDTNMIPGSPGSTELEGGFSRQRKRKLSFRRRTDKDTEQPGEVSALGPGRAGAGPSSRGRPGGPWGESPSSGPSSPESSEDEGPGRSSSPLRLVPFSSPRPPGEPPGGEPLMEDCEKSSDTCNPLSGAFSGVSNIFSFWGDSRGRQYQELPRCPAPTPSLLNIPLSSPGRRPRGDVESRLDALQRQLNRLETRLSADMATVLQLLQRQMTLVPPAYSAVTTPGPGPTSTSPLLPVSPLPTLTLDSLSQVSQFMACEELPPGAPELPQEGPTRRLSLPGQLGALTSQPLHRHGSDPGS", "test": "primary screen, population patch clamp on CHO cells stably expressing hERG", "units": {"hERG current change (%, negative = inhibition) at 10uM": "%"}, "values": [
      {"smiles": "COc1ccc(NC(=O)C2CCCN(S(=O)(=O)c3cccnc3)C2)c(OC)c1", "note": "(centres unmarked)", "hERG current change (%, negative = inhibition) at 10uM": -0.765},
      {"smiles": "COc1ccc(N=CC2=C(Nc3ccc(OC)cc3)c3c(C)nn(-c4ccccn4)c3CC2)cc1", "hERG current change (%, negative = inhibition) at 10uM": -16.4},
      {"smiles": "O=C(NCc1c(Cl)cccc1Oc1ccccc1)c1ccccc1", "hERG current change (%, negative = inhibition) at 10uM": 11},
      {"smiles": "Cc1nc(S/C(=C/c2ccc(-c3ccc(Cl)cc3)o2)C(=O)O)n[nH]1", "hERG current change (%, negative = inhibition) at 10uM": 7.5},
      {"smiles": "CCC1CCC/C1=N\\NC(=O)c1ccoc1C", "note": "(centres unmarked)", "hERG current change (%, negative = inhibition) at 10uM": 24.9},
      {"smiles": "COc1cccc(NC(=O)c2sc3ncn(CC(=O)N4CCN(c5ccccn5)CC4)c(=O)c3c2C)c1", "hERG current change (%, negative = inhibition) at 10uM": -0.877},
      {"smiles": "Cc1ccc(S(=O)(=O)N(CC(O)CN(C)C)c2ccccc2)cc1.Cl", "note": "(centres unmarked)", "hERG current change (%, negative = inhibition) at 10uM": -65.6},
      {"smiles": "O=C(c1cccs1)N1CCN(S(=O)(=O)Cc2ccccc2)CC1", "hERG current change (%, negative = inhibition) at 10uM": 14.6},
      {"smiles": "O=C(O)CCNC(=O)/C(=C/c1ccco1)NC(=O)c1ccco1", "hERG current change (%, negative = inhibition) at 10uM": 19.3},
      {"smiles": "COC/C=C/C1=CC2=CC(=O)C(C)(OC(=O)c3cnc4ccccc4n3)C(=O)C2=CN1Cc1ccco1", "note": "(centres unmarked)", "hERG current change (%, negative = inhibition) at 10uM": 0.0609},
      {"smiles": "COc1ccc(Cl)cc1NC(=O)CCS(=O)(=O)c1ccc(Br)cc1", "hERG current change (%, negative = inhibition) at 10uM": 3.8},
      {"smiles": "Cc1ccc(S(=O)(=O)N2CCN(C(=S)NCC3CCCO3)CC2)cc1", "note": "(centres unmarked)", "hERG current change (%, negative = inhibition) at 10uM": -17.8},
      {"smiles": "O=C(CSc1ccc(-c2ccc(F)cc2)nn1)NCCc1ccccc1", "hERG current change (%, negative = inhibition) at 10uM": 15.2},
      {"smiles": "OCCn1c(CSc2nc3ccccc3n2CCO)nc2ccccc21", "hERG current change (%, negative = inhibition) at 10uM": -11.9},
      {"smiles": "NC(=O)c1cccn(Cc2ccc(C(F)(F)F)cc2)c1=O", "hERG current change (%, negative = inhibition) at 10uM": 2.36},
      {"smiles": "Cc1ccc(-c2cc(C(=O)NC3=NCCS3)c3ccccc3n2)cc1C", "hERG current change (%, negative = inhibition) at 10uM": 28.7},
      {"smiles": "Nc1nc(-c2ccc(Cl)cc2)c(S(=O)(=O)c2ccccc2)s1", "hERG current change (%, negative = inhibition) at 10uM": 10.7},
      {"smiles": "COc1ccc(S(=O)(=O)Nc2ccc(N3CCOCC3)cc2)cc1Br", "hERG current change (%, negative = inhibition) at 10uM": -3.96},
      {"smiles": "CC(C)(C)c1ccc(C(=O)CCC(=O)OCC(=O)NCCc2ccc(S(N)(=O)=O)cc2)cc1", "hERG current change (%, negative = inhibition) at 10uM": -39.4},
      {"smiles": "CS(=O)(=O)N(CC(=O)N1CCCC1)c1ccc(Cl)cc1", "hERG current change (%, negative = inhibition) at 10uM": 3.42},
      {"smiles": "COCCNC(=O)CCC1CCN(Cc2cccc(-c3ccc(C)o3)c2)CC1", "hERG current change (%, negative = inhibition) at 10uM": -25.3},
      {"smiles": "CC(=O)Nc1ccc(NC(=O)COc2ccc([N+](=O)[O-])cc2)cc1", "hERG current change (%, negative = inhibition) at 10uM": 18.8},
      {"smiles": "CCOc1cccc(NC(=O)C2CC(=O)N(C)C(=Nc3cccc(F)c3)S2)c1", "note": "(centres unmarked)", "hERG current change (%, negative = inhibition) at 10uM": -13.4},
      {"smiles": "Cc1onc(-c2c(F)cccc2Cl)c1C(=O)Nc1c(C)n(C)n(-c2ccccc2)c1=O", "hERG current change (%, negative = inhibition) at 10uM": 0.00478},
      {"smiles": "CCCCC(CC)C1OCC(C[N+]2(C)CCOCC2)O1", "note": "(centres unmarked)", "hERG current change (%, negative = inhibition) at 10uM": 9.82},
      {"smiles": "CCOC(=O)c1nnn2c1nc(N1CCN(C)CC1)c1ccccc12", "hERG current change (%, negative = inhibition) at 10uM": -4.25},
      {"smiles": "CC1CCCC(C)N1/N=C/c1cc(Br)cc(Br)c1O", "note": "(centres unmarked)", "hERG current change (%, negative = inhibition) at 10uM": 10.1},
      {"smiles": "NC(=S)c1ncc(C(F)(F)F)cc1Cl", "hERG current change (%, negative = inhibition) at 10uM": 14.2},
      {"smiles": "Cc1ccc(C2(CCNCc3ccco3)CCOC(C(C)C)C2)cc1", "note": "(centres unmarked)", "hERG current change (%, negative = inhibition) at 10uM": -35.6},
      {"smiles": "CC(C)(C)c1ccc(C(=O)NCCc2ccccc2)cc1", "hERG current change (%, negative = inhibition) at 10uM": 17.3},
      {"smiles": "O=C(/C=C/c1c(F)cccc1Cl)Nc1nn[nH]n1", "hERG current change (%, negative = inhibition) at 10uM": 28.8},
      {"smiles": "O=C(Cn1nnc(-c2ccc(F)cc2)n1)Nc1cccc(S(=O)(=O)N2CCCC2)c1", "hERG current change (%, negative = inhibition) at 10uM": -40.1},
      {"smiles": "COC(=O)CCCC(=O)NCC1(N(C)Cc2ccccc2)Cc2ccccc2C1", "hERG current change (%, negative = inhibition) at 10uM": -13.9},
      {"smiles": "Clc1ccc(-c2nc3ccccn3c2CN2CCSCC2)cc1", "hERG current change (%, negative = inhibition) at 10uM": -20},
      {"smiles": "Nc1ccc(C(=O)c2ccccc2C(=O)O)cc1Cl", "hERG current change (%, negative = inhibition) at 10uM": 0.632},
      {"smiles": "CCOC(=O)CSc1nc2ccccc2c(=O)n1CC1CCCC1", "hERG current change (%, negative = inhibition) at 10uM": -67.3},
      {"smiles": "COCCNC(=O)CN(CC1CCCO1)C(=O)CCC(=O)Nc1ccccn1", "note": "(centres unmarked)", "hERG current change (%, negative = inhibition) at 10uM": -12.1},
      {"smiles": "O=C(NCCc1ccccc1)c1nc(-c2cccs2)no1", "hERG current change (%, negative = inhibition) at 10uM": -12.4},
      {"smiles": "O=C1COc2ccc(C(=O)COC(=O)c3cnc(Cl)c(Cl)c3)cc2N1", "hERG current change (%, negative = inhibition) at 10uM": -0.639},
      {"smiles": "O=C1N=C(N2CCOCC2)S/C1=C\\c1ccc(OS(=O)(=O)c2ccccc2)cc1", "hERG current change (%, negative = inhibition) at 10uM": -49.8},
      {"smiles": "CCn1ccnc1CN(C)C(=O)CCc1nnc(CCCc2ccccc2)o1", "hERG current change (%, negative = inhibition) at 10uM": -7.7},
      {"smiles": "Cc1noc(NS(=O)(=O)c2ccc(NC(=O)CSc3nnc4c(n3)[nH]c3ccccc34)cc2)c1C", "hERG current change (%, negative = inhibition) at 10uM": 12},
      {"smiles": "COc1ccc(CN(C(=O)CSc2nnc(-c3ccccc3F)o2)c2ccc(F)cc2)cc1", "hERG current change (%, negative = inhibition) at 10uM": -1.29},
      {"smiles": "Cc1ccc2[nH]c(C(=O)N3CCC(C(N)=O)CC3)cc2c1", "hERG current change (%, negative = inhibition) at 10uM": 8.07},
      {"smiles": "S=C(Nc1ccc(Cl)cc1)N1CCCC1", "hERG current change (%, negative = inhibition) at 10uM": 14.5},
      {"smiles": "CCN(CC)c1ccc(S(=O)(=O)N2CCOCC2)cc1NC(=O)COC(=O)/C=C/c1ccc(C)o1", "hERG current change (%, negative = inhibition) at 10uM": -26.4},
      {"smiles": "Fc1cccc(Cl)c1CSc1nnnn1-c1ccc2c(c1)OCO2", "hERG current change (%, negative = inhibition) at 10uM": -29.3},
      {"smiles": "COc1ccc(N=C2CC(C)(C)CC(=O)/C2=C(/O)c2ccccc2)cc1", "hERG current change (%, negative = inhibition) at 10uM": -5.99},
      {"smiles": "COc1ccc(NC(=O)CSc2ncnc3sc(C)cc23)cc1", "hERG current change (%, negative = inhibition) at 10uM": 4.61},
      {"smiles": "O=C(Nc1cccc(O)c1)c1cccc(S(=O)(=O)N2CCCC2)c1", "hERG current change (%, negative = inhibition) at 10uM": 0.295},
      {"smiles": "CC(C)CCN1CC(C(=O)NCc2ccccc2)CC1=O", "note": "(centres unmarked)", "hERG current change (%, negative = inhibition) at 10uM": -7.66},
      {"smiles": "O=C(NCc1ccc(OC(F)(F)F)cc1)C1CC(c2ccccc2[N+](=O)[O-])=NO1", "note": "(centres unmarked)", "hERG current change (%, negative = inhibition) at 10uM": -68.3},
      {"smiles": "O=C(NN1C(=O)/C(=C/c2ccc(O)cc2)SC1=S)c1ccccc1O", "hERG current change (%, negative = inhibition) at 10uM": -9.44},
      {"smiles": "Cc1nc(NC(=O)/C=C/c2ccccc2)sc1C(=O)Nc1cccc(Cl)c1", "hERG current change (%, negative = inhibition) at 10uM": 6.84},
      {"smiles": "O=S(=O)(O)c1nnc2sc3ccccc3n12", "hERG current change (%, negative = inhibition) at 10uM": 19.4},
      {"smiles": "COc1ccccc1NC(=O)COC(=O)CCn1c(C)csc1=O", "hERG current change (%, negative = inhibition) at 10uM": 8.69}
    ]}
  ]
}
